Measurements: PubChem BioAssay AID493208 (National Center for Advancing Translational Sciences (NCATS), 2011)
Hit rate of the full screen: of about 44,000 compounds, about 340 (0.77%) were called active. Roughly 5% stayed inconclusive and do not appear here. The call rests on the fitted dose curve; in most records, active means well fitted inhibition curve with a large enough effect; inconclusive means small, poorly fitted or top-dose-only effect; inactive means flat fitted curve, though single readings scatter. The list shows a part of the results.

Assay: Acumen qHTS Assay for Inhibitors of the mTORC1 Signaling Pathway in MEF (Tsc2-/-, p53-/-) Cells: Sytravon;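 further: plate controls were DMSO for no effect and rapamycin for full effect; nearly all actives have a fitted effect of over 50% in size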
Conditions: phospho-rpS6 immunofluorescence/PI, 24 h; series mostly up to 38.3 µM; activity change, negative = inhibition: at the top concentration
Outline: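 Tsc2-/-, p53-/- MEFs (empty-vector stable line) in DMEM + 10% FBS were treated with compounds 24 h at 37 degree Celsius, fixed, and immunostained for phospho-rpS6 (Alexa-488) with propidium iodide counterstain. Laser-scanning cytometry gave % positive cells, normalized against 7.5 nM rapamycin and DMSO.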

Activity change, negative = inhibition, inactive:
O=C(c1ccc(Cl)cc1)N1CCN(CCc2ccncc2)CC1 -12.1%
CCN(Cc1ccccc1)c1ncnc2c1cnn2-c1ccc(F)cc1 8.69%
CCOc1ccc(CNC(=O)C2CCN(C(=O)c3ccc(-n4ccc5ccccc54)s3)CC2)cc1 -2.67%
Cc1cccc(NC(=O)Cn2c(=O)n(CCCCCC(=O)NCc3ccccc3)c(=O)c3sccc32)c1 -28.4%
CCOc1ccc(Nc2cc(C(=O)NCc3ccccc3Cl)c3ccccc3n2)cc1 -10.3%
CCOC(=O)N1CCN(C(=O)c2ccc3c(c2)N(Cc2ccccc2F)C(=O)c2ccccc2S3(=O)=O)CC1 0.0918%
CCc1ccc(NC(=O)CSc2nc3c(c(=O)[nH]2)CN(Cc2ccc4c(c2)OCO4)CC3)cc1 2.73%
O=C(COc1ccccc1)NCC(c1ccc(Cl)cc1)N1CCCCC1 (stereo not given) -27.2%
O=C(CCCc1ccccc1)NC1CC(=O)N(c2cccc(F)c2)C1 (stereo not given) 2.69%
Cc1ccc(C)c(N2CCN(S(=O)(=O)c3c(C(=O)N4CCC(C)CC4)c(C)n(C)c3C)CC2)c1 0%
O=C(Nc1ccc(Br)c(Cl)c1)c1ccc(C(=O)Nc2ccc(Br)c(Cl)c2)cc1 -5.79%
COc1ccccc1CNC(=O)C(=O)NCC(c1ccco1)S(=O)(=O)c1ccc(C)cc1 (stereo not given) 2.99%
COC(=O)C1=C(C)N(C(C)C)C(=O)C1(NC(=O)c1ccccc1OC)C(F)(F)F (stereo not given) -3.77%
CCCCCn1c(CCCNC(=O)c2ccc(Cl)cc2)nc2ccccc21 -2.33%
COc1ccc(-c2nc(C(=O)Nc3cccc(C(C)=O)c3)nn2-c2ccccc2Cl)cc1 -1.16%
COc1ccc(CNC(=O)CCc2nnc3n(C)c(=O)c4sccc4n23)cc1 13%
O=C(NCc1ccccc1Cl)c1ccccc1NC(=O)c1nsc2ccccc12 0.394%
COc1cc(OC)c(NC(=O)c2cnn(-c3ccccc3)c2-n2cccc2)cc1Cl -7.32%
CCOc1cc(-c2nc(-c3ccc(-c4ccccc4)nc3OCC)no2)cc(OCC)c1OCC 1.26%
COCCCNC(=O)c1cc2c(-c3cccc(OC)c3)nn(C)c2s1 -15.9%
O=C(CSc1nccn1Cc1ccc(Cl)cc1)Nc1nc2ccccc2s1 -19.9%
COc1ccc(N2CCN(C(=O)c3cc4c(=O)n(Cc5ccco5)ccc4nc3C)CC2)cc1 -0.615%
Cc1ccccc1CCNC(=O)c1ccc(Cn2c(=O)c3cccn3c3cccnc32)cc1 -14.1%
CCc1ccc(NC(=O)c2cc(S(=O)(=O)N3CCCC(C)C3)cn2C)cc1 (stereo not given) 0%
Cc1ccc(C)c(N2CCN(C(=O)c3cc(C)nc4c3c(C)nn4-c3ccccc3)CC2)c1 -0.86%
COc1cc(NC(=O)CCN2CCN(CCO)CC2)cc(OC)c1 1.93%
COc1cc(CN(C(=O)COc2ccc(F)cc2)c2ccccn2)cc(OC)c1OC -1.13%
CCOc1ccc(OCC(=O)Nc2ccc(S(=O)(=O)Nc3cc(C)on3)cc2)cc1 13%
CCCc1cc(=O)n2[nH]c(NCc3c(F)cccc3Cl)nc2n1 -1.01%
CCc1nn(CC(=O)NCCc2ccc(SC)cc2)c(=O)c2cc3sccc3n12 -3.1%
Cc1nc2cc(-c3cccc(F)c3)nn2c(C)c1CCC(=O)NCCc1ccccc1 4.38%
COc1ccc(N2CCN(S(=O)(=O)c3ccc4c(c3)C(C(C)C)C(=O)N4)CC2)cc1 (stereo not given) -12%
Cn1c(=O)c2sccc2n2c(CCCC(=O)Nc3ccc(Oc4ccccc4)cc3)nnc12 2.65%
CCOC(=O)COc1ccc(-c2nnn(CC(=O)Nc3ccccc3)n2)cc1 -14.8%
Cc1ccc(NC(=O)c2ccc(=O)n(CC(=O)Nc3ccccc3)n2)cc1 -4.72%
Cc1ccc(C)c(NC(=O)C2CCN(S(=O)(=O)c3c(C)noc3/C=C/c3cccs3)CC2)c1 -3.24%
Cc1sc2c(c1C)c(=O)n(CCc1ccccc1)c(=O)n2Cc1ccc(C(C)(C)C)cc1 -2.36%
CCn1c(CNC(=O)c2ccc(OC)cc2)nnc1SCC(=O)Nc1cc(C)ccc1C 3.57%
CCc1cccc(NS(=O)(=O)c2ccc3c(c2)CC(C)N3C(=O)C2CC2)c1 (stereo not given) -7.48%
CCc1c(C)c2ccc(O)c(CN3CCN(c4ccc(F)cc4)CC3)c2oc1=O -0.781%
COc1ccccc1C(=O)NCc1nc2cccnc2n1Cc1ccc(F)cc1 -3.4%
COc1ccc(Cl)cc1NC(=O)CSc1nccn1-c1ccc(Cl)cc1 0.548%
CCOCN(C(=O)Cn1c(COC)nc2ccccc21)c1c(C)cccc1CC -5.64%
COc1ccc(S(=O)(=O)N2Cc3ccccc3CC2C(=O)Nc2cc(Cl)ccc2Cl)cc1 (stereo not given) 0.0288%
COc1ccc(C(=O)NCCn2cc(SCc3ccc(C(F)(F)F)cc3)c3ccccc32)cc1OC -1.54%
Cc1cccc(NC(=O)CSC2=Nc3ccccc3C3=NC(CC(=O)NCc4cccs4)C(=O)N23)c1 (stereo not given) -5.53%
COc1cccc(CNC(=O)C2CCCN(S(=O)(=O)N(C)c3ccc(F)cc3)C2)c1OC (stereo not given) -23.6%
COc1ccc(CNC(=O)CCCn2nc(C)n3c(cc4sccc43)c2=O)cc1 1.91%
COCCn1c(C)cc(O)c(C(c2ccccc2OC)N2CCN(c3ccccc3)CC2)c1=O (stereo not given) 1.34%
Cc1ccc(NC(=O)CN2C=NS(=O)(=O)c3ccccc32)cc1 -2.11%
COc1ccc(-c2noc(CC(=O)N(C)c3cccc(C)c3)n2)cc1 3.74%
CCOC(=O)COc1ccc(CC)cc1C(=O)c1ccn2nc(-c3ccc(F)cc3)cc2n1 5.05%
CCOC(=O)c1cnc2ccc(Br)cc2c1NCCN1CCOCC1 -1.04%
COc1ccc(C(=O)c2cn(Cc3ccccc3F)c3cc4c(cc3c2=O)OCCO4)cc1OC 6.65%
O=C(Nc1ccc2c(c1)CCCN2C(=O)c1cccs1)c1ccc(F)c(F)c1 0%
Cc1ccc(N2CC(NC(=O)c3ccccc3C(F)(F)F)CC2=O)cc1C (stereo not given) -1.21%
COc1ccc(Cl)cc1S(=O)(=O)Nc1ccc2[nH]c(=O)[nH]c2c1 2.23%
Clc1ccc2c(c1)-n1cc(-c3ccccc3)nc1CO2 -10.5%
CCc1ccc(S(=O)(=O)c2cn(Cc3ccccc3)c3cc(N4CCCC4)c(F)cc3c2=O)cc1 4.11%
Cc1ccc(Cl)cc1N1CCN(C(=O)CCS(=O)(=O)c2cc(Br)cc3c2N(C(=O)C2CC2)CC3)CC1 -23.7%
COc1ccc(NC(=O)CSc2oc(-c3cccs3)nc2S(=O)(=O)c2ccccc2)c(OC)c1 -5.97%
Cc1cccc(CNC(=O)c2cc3cc(S(=O)(=O)N4CCCCC4)ccc3n2C)c1 4.5%
Cc1ccc(CCNC(=O)Cn2c(-c3cccs3)cc3ccccc32)cc1 -13.6%
CC(C)(C)C1CCc2c(sc(NC(=O)c3cccc(Cl)c3)c2C(=O)NCc2ccco2)C1 (stereo not given) -12.6%
CC(=O)c1ccc(NC(=O)C2CCN(c3nnc(C)c4c(C)n(-c5ccccc5)nc34)CC2)cc1 -3.51%
Cc1ccc(-c2cc(C(=O)N3CCN(S(=O)(=O)c4ccc(Br)cc4)CC3)[nH]n2)c(C)c1 -7.36%
CC(C)OCCCn1c(=O)c2ccccc2n2c(-c3ccccc3)nnc12 -2.31%
O=C(Cc1ccccc1)Nc1sc2c(c1C(=O)Nc1cccc(Cl)c1)CCCCC2 3.58%
CCc1nn2c(=O)cc(COC(=O)Cc3ccccc3)nc2s1 2.76%
COc1ccc(NCc2cccn2-c2nnc(N3CCCCCC3)s2)cc1 -14%
CC(C)CCOc1ccc(Cn2c(=O)oc3ccccc32)cc1 -5.55%
Cc1ccc(S(=O)(=O)c2cn(Cc3ccccc3)c3cc(N4CCCCC4)c(F)cc3c2=O)cc1 -5.3%
O=C(NCc1ccco1)c1ccc(Cn2c(SCc3ccccc3)nc3cccnc32)cc1 1.25%
COc1cc(OC)c(NC(=O)CCS(=O)(=O)c2ccc3c(c2)oc(=O)n3C)cc1Cl -9.81%
COc1ccc(NC(=O)CSC2=Nc3ccccc3C3=NC(CC(=O)NCCc4ccccc4)C(=O)N23)cc1 (stereo not given) 3.1%
CCc1ccc(CNC(=O)C2COc3ccc(OC)cc3C2)cc1 (stereo not given) -6.76%
CN(Cc1ccccc1)C(=O)CSc1nnc(-c2cccc(Cl)c2)o1 -4.5%
CCOC(=O)c1c(C)sc(-c2c(-c3ccccc3)[nH]c3[nH]c(=O)[nH]c(=O)c23)c1O -19%
COc1ccc(-c2noc(-c3ccc(N4CCOCC4)c([N+](=O)[O-])c3)n2)cc1 -1.25%
CCc1ccc(S(=O)(=O)NCc2ccc3c(c2)CCN3C(=O)c2ccc(C)cc2)cc1 -1.32%
O=C(Cn1ncc2c(Cl)cccc21)NCc1cccc(Cl)c1 1.41%
CCc1ccc(-n2nc(CO)c(C(=O)NCCOC)n2)cc1 -0.166%
COc1ccc(OC)c(S(=O)(=O)N2CCC(n3c(C)nc4cccnc43)CC2)c1 0%
CN(C(=O)CC(=O)Nc1ccc2nc3n(c(=O)c2c1)CCCCC3)c1ccccc1F 0.03%
Cc1ccc(CN(C(=O)COc2ccccc2Cl)c2ccccn2)o1 0%
Cc1ccc(CNS(=O)(=O)c2ccc(C(=O)N(C)C)s2)cc1 1.66%
CCOc1ccc(NC(=O)Cn2c(=O)n(Cc3ccc4c(c3)OCO4)c(=O)c3ccc(C(=O)NC4CCCCC4)cc32)cc1 -0.219%
CC(C)(C)C1CCc2c(sc(NC(=O)C3c4ccccc4Oc4ccccc43)c2C(N)=O)C1 (stereo not given) -16.7%
CCn1cc(S(=O)(=O)c2cc(C)cc(C)c2)c(=O)c2cc(F)c(N3CCCCC3)cc21 7.22%
COc1ccc(OC)c(CNC(=O)Nc2cn(CC(C)C)c(=O)c3ccccc23)c1 0.561%
CCC(=O)N1c2ccc(S(=O)(=O)CCC(=O)NCc3ccccc3OC)cc2CC1C (stereo not given) -0.832%
Cc1ccc(CNC(=O)Nc2cc(C(=O)NCc3cccc(F)c3)ccc2N2CCCC2)cc1 11.4%
COC(=O)c1nnn(CC(=O)NC(=O)Nc2ccc(F)cc2)c1C(=O)OC -9.65%
CC(=O)N1CCc2cc(Br)cc(S(=O)(=O)N3CCC(C(=O)Nc4cccc(C)c4C)CC3)c21 6.97%
O=C(Nc1ccc(S(=O)(=O)N2CCC(c3nc4ccccc4s3)CC2)cc1)c1ccccc1 5.36%
